# Measured values taken from publication PMC4336329 (PLoS ONE, 2015).
# The whole screen tested about 310,000 compounds, of which about 2,200 (0.71%) showed an effect of 50% or more. The effect is printed as a negative number. The list shows a part of the results.
# Molecular target: human ether-à-go-go-related gene (hERG) potassium channel (human, UniProt Q12809)
# Assay: primary screen, population patch clamp on CHO cells stably expressing hERG
# Sequence of human ether-à-go-go-related gene (hERG) potassium channel (Q12809 whole entry, looked up): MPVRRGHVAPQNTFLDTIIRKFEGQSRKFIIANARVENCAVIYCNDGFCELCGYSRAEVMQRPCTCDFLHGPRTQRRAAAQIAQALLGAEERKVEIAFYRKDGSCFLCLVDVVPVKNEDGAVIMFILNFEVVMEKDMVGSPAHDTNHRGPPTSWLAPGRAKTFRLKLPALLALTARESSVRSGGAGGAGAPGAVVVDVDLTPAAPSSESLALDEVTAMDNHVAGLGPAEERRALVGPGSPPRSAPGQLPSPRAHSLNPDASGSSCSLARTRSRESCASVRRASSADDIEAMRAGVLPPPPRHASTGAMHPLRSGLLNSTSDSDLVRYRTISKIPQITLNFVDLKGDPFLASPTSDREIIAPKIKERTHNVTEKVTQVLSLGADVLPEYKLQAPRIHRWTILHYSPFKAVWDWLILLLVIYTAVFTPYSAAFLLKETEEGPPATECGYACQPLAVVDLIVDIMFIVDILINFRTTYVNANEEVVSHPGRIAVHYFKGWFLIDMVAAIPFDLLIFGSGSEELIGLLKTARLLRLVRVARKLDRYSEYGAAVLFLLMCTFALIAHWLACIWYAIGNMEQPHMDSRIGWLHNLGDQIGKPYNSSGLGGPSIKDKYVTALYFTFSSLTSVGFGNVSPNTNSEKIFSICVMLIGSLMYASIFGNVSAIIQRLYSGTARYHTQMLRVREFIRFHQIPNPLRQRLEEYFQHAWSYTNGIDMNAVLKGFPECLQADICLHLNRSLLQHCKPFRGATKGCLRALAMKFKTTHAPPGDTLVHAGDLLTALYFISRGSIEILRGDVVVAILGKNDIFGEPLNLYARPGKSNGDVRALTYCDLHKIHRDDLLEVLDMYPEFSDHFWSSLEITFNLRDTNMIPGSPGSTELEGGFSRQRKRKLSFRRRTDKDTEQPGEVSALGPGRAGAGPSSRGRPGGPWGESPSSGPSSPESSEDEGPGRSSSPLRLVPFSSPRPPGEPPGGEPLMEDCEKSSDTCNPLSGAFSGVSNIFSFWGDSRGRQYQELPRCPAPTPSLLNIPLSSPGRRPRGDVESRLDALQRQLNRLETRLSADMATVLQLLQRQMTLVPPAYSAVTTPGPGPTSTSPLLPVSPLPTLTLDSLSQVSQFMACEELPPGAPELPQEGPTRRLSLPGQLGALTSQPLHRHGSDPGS
row,SMILES,"hERG current change (%, negative = inhibition) at 1uM [%]"
1,CC(C)c1ccc(C(O)P(=O)(OCc2ccccc2)c2ccc(N(C)C)cc2)cc1 (stereo not drawn),11.8
2,C/C(N)=C(/C#N)C(=O)CSc1nc(C2CCCCC2)n(-c2ccccc2)n1,11.3
3,Cc1ccc(NC(=O)CN2C(=O)NC(Cc3c[nH]c4ccccc34)C2=O)cc1 (stereo not drawn),8.72
4,O=C(NN1C(=O)NC2(CCCCC2)C1=O)c1ccc(-c2ccc([N+](=O)[O-])cc2)o1,2.68
5,Cc1ccc(-c2cc(C(=O)N/N=C/c3ccco3)[nH]n2)cc1,5.38
6,O=c1cc(CN2CCN(c3cccc(C(F)(F)F)c3)CC2)nc2sccn12,2.21
7,COc1ccccc1N1CCN(/N=C/c2ccccc2C(=O)O)CC1,15.7
8,COc1cc(C(=S)N2CCC(C(N)=O)CC2)ccc1O,6.37
9,CCCCc1ccc(NC(=O)N[C@@H](CC(C)C)C(=O)O)cc1,9.32
10,S=C(Nc1ccccc1Cl)N1CCCC1,11.1
11,Cc1ccc2[nH]c(=O)c(CN(CCc3ccccc3)C(c3nnnn3Cc3ccco3)C(C)C)cc2c1 (stereo not drawn),12.2
12,Cc1c(CCOC(=O)c2ccc([N+](=O)[O-])cc2)sc[n+]1CC(=O)c1ccccc1.[Br-],-6.66
13,Cc1cccc(OCCOCCN2CCOCC2)c1C,-10.4
14,CC(C)Cn1c(N)c(C(=O)COC(=O)CC23CC4CC(CC(C4)C2)C3)c(=O)n(C)c1=O,13.6
15,Clc1ccccc1OCCn1ccnc1,6.3
16,Cc1cc([N+](=O)[O-])c2ccccc2[n+]1[O-],15
17,CNC(=O)c1c(NC(=O)c2ccc(S(=O)(=O)N(C)c3ccccc3)cc2)sc2c1CCN(C(C)C)C2,12.9
18,CCCCN(C)c1c(N2CCC(C(=O)OCC)CC2)c(=O)c1=O,0.0218
19,O=C(O)CSc1nnc(-c2ccccc2)o1,15.5
20,C/C=C(\C)C(=O)NCCN1C2=NC[C@H](Cc3ccc(O)cc3)N2C[C@@H]1Cc1ccc(OC)cc1,10.6
21,CCCCn1c(N)c(N(CC(C)C)C(=O)c2cc3c(s2)CCC3)c(=O)[nH]c1=O,9.32
22,O=C1CC(SCc2nc3ccccc3[nH]2)C(=O)N1c1cccc(Cl)c1 (stereo not drawn),-14.2
23,O=C(NCCc1ccc(F)cc1)C(=O)Nc1cc2c3c(c1)CC(=O)N3CCC2,4.06
24,CCOc1ccc(NS(=O)(=O)c2ccc(OC)c(C)c2)cc1,6.27
